# Results from the supplement of paper PMC4166925.
# ± gives the standard deviation of the averaged measurements. Whole data set: some 33,000 sequences, median “E-score (dimensionless, -0.5 to 0.5)” near -0.046, cut for the highest 2% near 0.36. This is one part of the list.
# System: T1, SpTbr T-box DNA-binding domain (GST fusion)
# T1 sequence: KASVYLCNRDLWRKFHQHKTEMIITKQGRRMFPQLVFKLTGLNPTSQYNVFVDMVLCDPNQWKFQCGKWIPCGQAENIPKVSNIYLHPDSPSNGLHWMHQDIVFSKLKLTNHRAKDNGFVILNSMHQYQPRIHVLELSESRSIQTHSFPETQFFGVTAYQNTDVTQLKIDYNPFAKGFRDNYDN
# Experiment: PBM E-score of 8-mer (E-score (dimensionless, -0.5 to 0.5)); Tbr is Tbrain of the sea star Patiria miniata (Pm) or the sea urchin Strongylocentrotus purpuratus (Sp); higher = stronger binding preference; most listed sequences are background and not binding sites
# Conditions: the construct has about 5 more residues each side
# Procedure, shortened: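 Universal Agilent oligonucleotide arrays, made double-stranded by primer extension, were incubated with 200 nM GST-fused Tbr T-box DNA-binding domain in PBS (pH 7.5). The protein was expressed in BL21 E. coli at 20 °C and purified by glutathione affinity chromatography. After scanning and quantification, the Universal PBM Analysis Suite assigned an enrichment E-score to each ungapped 8-mer, averaged over duplicate arrays.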
row,Sequence,PBM E-score of 8-mer
1,GTGGTCCA,-0.184 ± 0.014
2,ACCAAACT,-0.131 ± 0.038
3,ACCATGAA,-0.0545 ± 0.054
4,AGTTGGCC,-0.112 ± 0.0038
5,GCTTCCAC,0.0999 ± 0.075
6,ATGCCAGA,-0.1829 ± 0.0011
7,CGGGCGCC,-0.13 ± 0.027
8,ATTAGATG,-0.199 ± 0.052
9,CATTCAAC,-0.212 ± 0.042
10,TAAGGGAA,-0.28 ± 0.032
11,CATCCGGC,-0.0875 ± 0.055
12,TTAAAGAA,-0.0841 ± 0.01
13,CGTTATAC,-0.0795 ± 0.028
14,CCTCGGCC,-0.158 ± 0.034
15,ACACCCAC,0.3288 ± 0.0018
16,CAAATAAG,-0.0181 ± 0.034
17,AGTAACTA,-0.131 ± 0.019
18,TCACTAGA,0.112 ± 0.0083
19,CTTAGTCC,-0.17 ± 0.016
20,CGTGTGGA,0.306 ± 0.0073
21,TAGCCGAA,-0.1327 ± 0.0011
22,TACCGCTA,0.0813 ± 0.0076

row,Sequence,PBM E-score of 8-mer
1,AGAACCGC,0.134 ± 0.006
2,AGACACTC,0.129 ± 0.029
3,CAGTAATG,0.0486 ± 0.063
4,ATACTCTA,-0.117 ± 0.035
5,GTCGCCGA,-0.058 ± 0.026
6,AACCCGTC,0.12 ± 0.047
7,GCAGTAAC,0.0299 ± 0.013
8,ACTTCAAC,0.105 ± 0.043
9,GAGACACA,0.15 ± 0.01
10,AAAAACTA,-0.0466 ± 0.032
11,CAAAATAG,-0.146 ± 0.0023
12,AGCGACAG,0.24 ± 0.0054
13,AGCATGGA,-0.0258 ± 0.071
14,CATCAAGA,-0.248 ± 0.021
15,AACGTAAC,-0.188 ± 0.046
16,AAAAGTCT,-0.134 ± 0.052
17,TGAATACA,-0.177 ± 0.01
18,AAGTCGTA,-0.155 ± 0.058
19,ATATATCG,-0.0542 ± 0.011
20,ACTCCCTG,-0.113 ± 0.038
21,GGGGGCAA,-0.0481 ± 0.018
22,CAGACCTC,-0.15 ± 0.075

row,Sequence,PBM E-score of 8-mer
1,CAGGGCAA,-0.237 ± 0.011
2,AGTCAACA,0.268 ± 0.036
3,GTACAATA,-0.338 ± 0.055
4,TACGGCGA,-0.171 ± 0.11
5,AGAGCATC,-0.154 ± 0.1
6,GGCGGCGA,0.0793 ± 0.018
7,CCGAGTAC,-0.145 ± 0.053
8,CCTATAAC,-0.0822 ± 0.018
9,CACCCGAG,0.069 ± 0.066
10,ACTTGGCT,-0.211 ± 0.036
11,AGCTATTC,-0.162 ± 0.022
12,GGCGCTCA,0.0148 ± 0.02
13,CTAACAGA,0.171 ± 0.054
14,GATCTCCC,-0.105 ± 0.023
15,ACAACAAT,0.167 ± 0.0095
16,ATGCAGTC,-0.0765 ± 0.095
17,AGCTCCTG,-0.149 ± 0.038
18,AATAAAGG,-0.242 ± 0.049
19,TGAGTTAA,-0.15 ± 0.002
20,CCCAAGAG,-0.169 ± 0.035
21,AGGGCACC,-0.223 ± 0.011
22,AGAAGCCG,-0.245 ± 0.083

row,Sequence,PBM E-score of 8-mer
1,AGCGACTC,0.0837 ± 0.035
2,GTGGTGTA,0.186 ± 0.013
3,GCTAGTCA,0.00479 ± 0.017
4,CGCAGAGA,-0.217 ± 0.082
5,GGTGAAAA,0.126 ± 0.095
6,AATAAATA,-0.133 ± 0.013
7,AGTCCTGC,-0.112 ± 0.076
8,CTGAGCAC,0.0441 ± 0.071
9,CCCCCTGC,-0.29 ± 0.046
10,AACTATCT,0.00728 ± 0.06
11,AAGGGGTC,-0.131 ± 0.023
12,GCAGACGC,-0.148 ± 0.0026
13,GAGGTACA,-0.248 ± 0.0098
14,CTCGTCGA,0.0037 ± 0.0045
15,GCCTCCCC,-0.116 ± 0.039
16,AACTGAAT,-0.218 ± 0.04
17,CTATTCGC,0.275 ± 0.018
18,GTAATCAA,0.0372 ± 0.052
19,CGACATTC,-0.0199 ± 0.12
20,AGAGTACT,-0.111 ± 0.0057
